Hit rate of the full screen: of about 420,000 compounds, about 50,000 (12%) were called active. The inconclusive results got no clear call from the source; some entries with a clear call stand among them for comparison. Calls follow the shape of the dose curve; as a rule, active = well fitted inhibition curve with a large enough effect; inconclusive = small, poorly fitted or top-dose-only effect; inactive = flat fitted curve, though single readings scatter. Potencies of inconclusive entries are left out as doubtful fits.
Test: qHTS for Inhibitors of human tyrosyl-DNA phosphodiesterase 1 (TDP1): qHTS in cells in presence of CPT; also: nearly all actives have a fitted effect of over 55% in size
Details: chicken DT40 Tdp1-/-;hTDP1 cells + 20 nM CPT, ATP luminescence, 48 h; series mostly up to 46.2 µM
Method in brief: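 Chicken DT40 Tdp1-/- cells stably complemented with human TDP1 were seeded at 400 cells/well in medium containing 20 nM camptothecin, exposed to pin-transferred compounds, and grown at 37 °C for at least 48 hr. Viability was read as ATP luminescence.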
Potency is read from the fitted curve at half-maximal effect; tags tell the direction and shape of the fitted curve.

Row | Structure (SMILES) | Potency
1 | O=C(N/N=C/c1ccc(Cl)cc1)c1sccc1OCc1ccc(F)cc1 | active: 1.16 µM
2 | COc1ccc(NC(=O)Nc2nnc(SCC(=O)Nc3cccc(C)c3C)s2)cc1 | active: 18.4 µM
3 | CCN(CC(=O)NCCc1ccc(F)cc1)Cc1nc2ccccc2c(=O)[nH]1 | inconclusive [inhibitor, single point]
4 | Cc1onc(-c2ccccc2Cl)c1C(=O)Nc1cccc(-c2cn3cccnc3n2)c1 | inconclusive [inhibitor, partial curve, poor fit]
5 | O=S(=O)(NCc1ccc(F)cc1)c1ccc(-n2cnnn2)cc1 | inconclusive [inhibitor, single point]
6 | COc1ccc(/C=N/NC(=S)Nc2cccc(C(=O)O)c2)cc1 | inactive
7 | COc1ccc(-c2csc3ncnc(N4CCN(S(=O)(=O)c5cccc(Br)c5)CC4)c23)cc1 | active: 23.1 µM
8 | Cc1cccc(C)c1-n1nnnc1C(c1ccnc2ccccc12)N1CCN(C(=O)OCc2ccccc2)CC1 (centres undefined) | inconclusive [inhibitor, single point]
9 | CSCCC(NC(=O)c1ccccc1Cl)C(=O)NNC(=O)c1ccncc1 (centres undefined) | inactive
10 | COc1ccc(-n2nc(C(=O)NCC(=O)NCC3COc4ccccc4O3)c3ccccc3c2=O)cc1 (centres undefined) | inconclusive [inhibitor, single point]
11 | Cc1ccc(C2C=C(c3ccc(Cl)cc3)Nc3nc(NC(=O)CCC(=O)O)nn32)cc1 (centres undefined) | inconclusive [inhibitor, single point]
12 | COc1ccc(N/N=C(\C#N)C(N)=O)cc1 | inactive
13 | CCOc1ccc(NC(=O)CCn2c(-c3ccc(F)cc3)cc(C(C)=O)c2C)cc1 | active: 20.6 µM
14 | Cn1c(N)c(C(=O)COC(=O)/C=C/c2ccc(Cl)cc2Cl)c(=O)n(C)c1=O | inconclusive [inhibitor, single point]
15 | COc1ccc(C2=C(C)C(=O)N(Cc3ccc(C(=O)NCc4ccccc4C)cc3)S2(=O)=O)cc1 | inconclusive [inhibitor, single point]
16 | CSc1ccccc1NC(=O)CN(C)CC(=O)Nc1ccccc1F | inactive
17 | COc1ccccc1C(=O)Nc1ccccc1SC(=O)c1ccccc1OC | active: 2.59 µM
18 | O=C(NCc1cccnc1)c1sc2cc(Cl)ccc2c1Cl | inconclusive [inhibitor, single point]
19 | CCc1nc2ccccc2c(=O)n1NC(=O)c1c(O)c2cccc3c2n(c1=O)CCC3 | inconclusive [inhibitor, single point]
20 | Cc1c(NC(=O)Nc2ccccc2)cccc1[N+](=O)[O-] | inconclusive [inhibitor, partial curve]
21 | O=S(=O)(NCCc1ccc(Cl)cc1)c1ccc(N2CCCCS2(=O)=O)cc1 | active: 18.4 µM
22 | COC(OC)c1ccnc(-c2ccc(OC(=O)c3cccs3)cc2)n1 | inactive

Row | Structure (SMILES) | Potency
23 | OCc1cn(-c2ccccc2)nc1-c1cc2ccccc2o1 | inconclusive [inhibitor, single point]
24 | Cc1ccc(-c2noc(CCC(=O)NCCCN3CCN(c4cccc(Cl)c4)CC3)n2)cc1 | active: 11.6 µM
25 | COc1cc(NC(=O)CCN2CCOCC2)cc(OC)c1 | inactive
26 | COC(=O)c1cn(C(=O)c2ccc(C)cc2C)c2ccccc12 | inconclusive [inhibitor, single point]
27 | COc1cc(NC(=O)COn2nnc3ccc(S(C)(=O)=O)cc32)cc(OC)c1 | inactive
28 | Cc1ccc2oc(C(=O)N3CCC(O)(c4ccccc4)CC3)c(C)c2c1 | inconclusive [inhibitor, single point]
29 | Cn1c(=O)c2c(nc(NCCNC(=O)c3ccco3)n2Cc2ccccc2F)n(C)c1=O | inconclusive [inhibitor, single point]
30 | O=C(c1ccc(Cl)cc1)C1CCN(Cc2ccccc2)CC1 | inconclusive [inhibitor, single point]
31 | O=C(COC(=O)/C=C/c1ccccc1[N+](=O)[O-])NC1CC1 | inconclusive [inhibitor, single point]
32 | O=C(CSc1nnc(-c2ccccc2)c(-c2ccccc2)n1)Nc1ccccc1Cl | inconclusive [inhibitor, single point]
33 | COc1ccc(CNC(=O)O[C@H]2C[C@@H]3C(=O)N(c4ccccc4)C(=O)[C@@H]3[C@@H]3CN(S(=O)(=O)c4ccc(C)cc4)C[C@]23O)cc1OC | inactive
34 | N#CCCn1cc(/C=N/NC(N)=S)c(-c2ccc(-c3ccccc3)cc2)n1 | inconclusive [inhibitor, single point]
35 | COc1ccc(N(Cc2cc3ccccc3[nH]c2=O)S(=O)(=O)c2ccc(OC)cc2)cc1 | inconclusive [inhibitor, single point]
36 | Cc1[nH][nH]c(=O)c1C(c1ccc(Br)cc1)c1c(C)[nH][nH]c1=O | inactive
37 | CCOC(=O)[C@]12CCCC=C1N(Cc1ccccc1)C(=O)[C@H](CC(=O)NCc1cccc(C(F)(F)F)c1)C2 | inconclusive [inhibitor, single point]
38 | Cc1nc2c(OCc3ccc(C(F)(F)F)cc3)cccn2c1N(C)Cc1cccs1 | inconclusive [inhibitor, single point]
39 | O=C(NCc1nc2ccccc2[nH]1)C1=C[C@H](c2ccc(C(F)(F)F)cc2)C[C@H](OCc2ccc(CO)cc2)O1 | inconclusive [inhibitor, single point]
40 | CCOC(=O)C1C(C#N)=C(N)OC(C)=C1c1ccncc1 (centres undefined) | inconclusive [inhibitor, single point]
41 | Cc1ccccc1NC(=O)COC(=O)CCc1ccccc1 | inconclusive [inhibitor, single point]
42 | CCOC(=O)c1sc(NC(=O)C(CC)Sc2nccn2C)nc1C (centres undefined) | inactive
43 | COc1ccccc1N1CCN(CCCCN2C(=O)CCC2=O)CC1 | inactive
44 | COc1ccc(C(=O)Nc2cccc3cccnc23)cc1OC | inconclusive [inhibitor, partial curve]

Reference: PubChem BioAssay AID686979 (National Center for Advancing Translational Sciences (NCATS), 2013)
